The supplement of paper PMC4604168 (melanoma cell lines)
The other results are listed elsewhere or left out. Repeats are few or missing, and single values can be far off.

Key:
Test in all cases: cell count relative to DMSO control; melanoma cells; higher = more viable cells
Details in all cases: library dose: low library concentration; 72 h
[1] = test system: MZ2-MEL
[2] = test system: MeWo
[3] = test system: RPMI7951
[4] = test system: RVH-421
[5] = test system: SkMel28
[6] = test system: SkMel2
[7] = test system: SkMel30
[8] = test system: SkMel5
[9] = test system: UACC257
[10] = test system: UACC62
[11] = test system: WM115
[12] = test system: WM1716
[13] = test system: WM1745
[14] = test system: WM3526
[15] = test system: WM3619
[16] = test system: WM451Lu
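Note: cell number obtained by counting DAPI-stained nuclei in high-throughput microscope images with image analysis software, screen run in 1,536-well plates.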

Compound | cell count [1] [%] | cell count [2] [%] | cell count [3] [%] | cell count [4] [%] | cell count [5] [%] | cell count [6] [%] | cell count [7] [%] | cell count [8] [%] | cell count [9] [%] | cell count [10] [%] | cell count [11] [%] | cell count [12] [%] | cell count [13] [%] | cell count [14] [%] | cell count [15] [%] | cell count [16] [%]
O=c1[nH]nc(Sc2ncc([N+](=O)[O-])s2)n1-c1ccc2c(c1)OCCO2 + C/C(O)=C(\C#N)C(=O)Nc1cc(Br)ccc1Br [LFM-A13] (first compound 0.2 µM, partner dose 2 µM) | 103 | 101 | 106 | 85 | 98.7 | 102 | 99.6 | 96.9 | 98.7 | 92.6 | 96.9 | 101 | 103 | 96.6 | 97.6 | 103
Cn1cnc2c(F)c(Nc3ccc(Br)cc3Cl)c(C(=O)NOCCO)cc21 [selumetinib] + Cc1cc(SCc2sc(-c3ccc(C(F)(F)F)c(F)c3)nc2C)ccc1OCC(=O)O [GW0742] (first compound 0.015 µM, partner dose 2 µM) | 92 | 96.7 | 113 | 90.9 | 78.1 | 87.5 | 66.1 | 108 | 103 | 69.7 | 90.2 | 123 | 103 | 79.8 | 90.1 | 111
O=C(Nc1cc(C(F)(F)F)cc(C(F)(F)F)c1)c1cc(Cl)ccc1O + C[As](C)SC[C@H](NC(=O)CC[C@H](N)C(=O)O)C(=O)NCC(=O)O [Darinaparsin] (first compound 0.016 µM, partner dose 0.4 µM) | 107 | 86.1 | 128 | 88.8 | 103 | 109 | 112 | – | – | 90.4 | 106 | 107 | 97.7 | 88.2 | 113 | 104
CS(=O)(=O)c1ccc(C(=O)Nc2ccc(Cl)c(-c3ccccn3)c2)c(Cl)c1 [vismodegib] + Cc1cc(SCc2sc(-c3ccc(C(F)(F)F)c(F)c3)nc2C)ccc1OCC(=O)O [GW0742] (first compound 1 µM, partner dose 2 µM) | 105 | 101 | 99.8 | 111 | 106 | 104 | 87.8 | 120 | 107 | 123 | 102 | 115 | 103 | 92.1 | 89 | 135
O=c1[nH]nc(Sc2ncc([N+](=O)[O-])s2)n1-c1ccc2c(c1)OCCO2 + C[As](C)SC[C@H](NC(=O)CC[C@H](N)C(=O)O)C(=O)NCC(=O)O [Darinaparsin] (first compound 0.2 µM, partner dose 0.4 µM) | 110 | 92.6 | 81.9 | 90.4 | 96.6 | 95.7 | 104 | – | – | 95.4 | 96.8 | 95.6 | 91.3 | 97.9 | 71.8 | 99.2
C[C@@H](N)c1ccc(C(=O)Nc2ccnc3[nH]ccc23)cc1 + O=C(Oc1ccc([N+](=O)[O-])cc1)N1CCC(C(O)(c2ccc3c(c2)OCO3)c2ccc3c(c2)OCO3)CC1 [JZL184] (first compound 0.4 µM, partner dose 1 µM) | 76.3 | 93.6 | 59.2 | 61.6 | 75.9 | 98.3 | 109 | 74.8 | 75.7 | 78.8 | 107 | 71.3 | 77.2 | 102 | 88.1 | 101
C[C@]1(O)C[C@@H](c2nc(-c3ccc4ccc(-c5ccccc5)nc4c3)c3c(N)nccn32)C1 + N.N.[Cl][Pt][Cl] [cisplatin] (first compound 0.4 µM, partner dose 1.6 µM) | 93.7 | 98.5 | 88 | 97.6 | 95.9 | 88 | 87 | – | – | 89 | 103 | 81 | 81.4 | 94 | 108 | 88.6
CS(=O)(=O)c1ccc(C(=O)Nc2ccc(Cl)c(-c3ccccn3)c2)c(Cl)c1 [vismodegib] + N.N.[Cl][Pt][Cl] [cisplatin] (first compound 1 µM, partner dose 1.6 µM) | 101 | 101 | 100 | 94.1 | 84.4 | 98.4 | 95.7 | – | – | 118 | 109 | 106 | 98.1 | 87.2 | 97 | 122
C[C@]1(O)C[C@@H](c2nc(-c3ccc4ccc(-c5ccccc5)nc4c3)c3c(N)nccn32)C1 + O=C(Oc1ccc([N+](=O)[O-])cc1)N1CCC(C(O)(c2ccc3c(c2)OCO3)c2ccc3c(c2)OCO3)CC1 [JZL184] (first compound 0.4 µM, partner dose 1 µM) | 94.9 | 100 | 99.4 | 115 | 109 | 98.2 | 95.3 | 86 | 93.8 | 75.8 | 101 | 105 | 77.9 | 83.9 | 94.9 | 86.3
Cn1c(=O)n(-c2ccc(C(C)(C)C#N)cc2)c2c3cc(-c4cnc5ccccc5c4)ccc3ncc21 + O=C(Oc1ccc([N+](=O)[O-])cc1)N1CCC(C(O)(c2ccc3c(c2)OCO3)c2ccc3c(c2)OCO3)CC1 [JZL184] (first compound 0.004 µM, partner dose 1 µM) | 97.1 | 97.9 | 93.5 | 103 | 67.5 | 91.6 | 75.9 | 100 | 81.9 | 78.3 | 92.1 | 87.2 | 92.9 | 85.4 | 110 | 95.8
CCN(CC)CCNC(=O)c1c(C)[nH]c(/C=C2\C(=O)Nc3ccc(F)cc32)c1C [sunitinib] + O=C(Oc1ccc([N+](=O)[O-])cc1)N1CCC(C(O)(c2ccc3c(c2)OCO3)c2ccc3c(c2)OCO3)CC1 [JZL184] (first compound 0.4 µM, partner dose 1 µM) | 103 | 90.3 | 105 | 111 | 102 | 113 | 79.1 | 107 | 84.7 | 89.1 | 105 | 110 | 69.9 | 94 | 110 | 78
COc1ccc(C2=N[C@@H](c3ccc(Cl)cc3)[C@@H](c3ccc(Cl)cc3)N2C(=O)N2CCNC(=O)C2)c(OC(C)C)c1 [Nutlin-3] + N.N.[Cl][Pt][Cl] [cisplatin] (first compound 0.1 µM, partner dose 1.6 µM) | 100 | 101 | 94 | 65.8 | 99.8 | 102 | 120 | – | – | 92.2 | 91.4 | 101 | 102 | 103 | 96.3 | 90.1
CS(=O)(=O)CCNCc1ccc(-c2ccc3ncnc(Nc4ccc(OCc5cccc(F)c5)c(Cl)c4)c3c2)o1 [lapatinib] + O=C(Oc1ccc([N+](=O)[O-])cc1)N1CCC(C(O)(c2ccc3c(c2)OCO3)c2ccc3c(c2)OCO3)CC1 [JZL184] (first compound 0.8 µM, partner dose 1 µM) | 92.7 | 92.6 | 87.4 | 116 | 89.1 | 99.1 | 64.3 | 96.4 | 120 | 80.7 | 108 | 98.8 | 91 | 106 | 86.1 | 113
Cc1cc(Nc2cc(N3CCN(C)CC3)nc(/C=C/c3ccccc3)n2)n[nH]1 + Cc1cc(SCc2sc(-c3ccc(C(F)(F)F)c(F)c3)nc2C)ccc1OCC(=O)O [GW0742] (first compound 0.04 µM, partner dose 2 µM) | 92.3 | 86.4 | 103 | 107 | 92.7 | 99.2 | 79.4 | 100 | 122 | 98.8 | 98.9 | 115 | 94.3 | 123 | 88.1 | 108
O=C(O)[C@@H]1[O][Sb](=[O])([O][Sb]2(=[O])[O][C@H]([C@H](O)CO)[C@H](O)[C@H](C(=O)O)[O]2)[O][C@H]([C@H](O)CO)[C@@H]1O (stereo partly drawn) [stibogluconate] + Cc1cc(SCc2sc(-c3ccc(C(F)(F)F)c(F)c3)nc2C)ccc1OCC(=O)O [GW0742] (first compound 2 µM, partner dose 2 µM) | 100 | 91.4 | 94.3 | 113 | 106 | 90.4 | 97.5 | 113 | 115 | 108 | 90.9 | 106 | 127 | 101 | 111 | 103
Cc1ccc(Nc2nccc(N(C)c3ccc4c(C)n(C)nc4c3)n2)cc1S(N)(=O)=O [Pazopanib] + C[As](C)SC[C@H](NC(=O)CC[C@H](N)C(=O)O)C(=O)NCC(=O)O [Darinaparsin] (first compound 0.4 µM, partner dose 0.4 µM) | 70.7 | 96.4 | 96.8 | 111 | 88.9 | 94.9 | 97 | – | – | 90.3 | 104 | 84.2 | 93.3 | 114 | 98.2 | 109
CCCCCCCCCCCCCCCCCCOP(=O)([O-])OC1CC[N+](C)(C)CC1 [Perifosine] + C[As](C)SC[C@H](NC(=O)CC[C@H](N)C(=O)O)C(=O)NCC(=O)O [Darinaparsin] (first compound 0.4 µM, partner dose 0.4 µM) | 110 | 80.5 | 55.2 | 98.2 | 83.6 | 110 | 80.4 | – | – | 97.1 | 102 | 108 | 72.6 | 70.9 | 100 | 58.6
